Measurements as given in PubChem BioAssay AID1508623 (National Center for Advancing Translational Sciences (NCATS), 2021).
The whole screen tested about 48,000 compounds, of which about 450 (0.94%) were called active. Roughly 19% stayed inconclusive and do not appear here. Calls come from the whole dose curve; as a rule, active = well fitted inhibition curve with a large enough effect; inconclusive = small, poorly fitted or top-dose-only effect; inactive = no such curve, though single readings can be large or run the other way. The list shows a part of the results.

Experiment: Primary qHTS for Identification of Small Molecule Inhibitors of Huntingtin Promoter Activity; note: nearly all actives have a fitted effect of over 50% in size
Conditions: HEK293 HTT promoter firefly luciferase reporter (activity 0% = vehicle and -100% = no light), 24 h; series mostly up to 57.5 µM; activity change, negative = inhibition: at the top concentration
Summary of the method: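 Quantitative HTS used concentration series of up to 57.5 uM final on HEK293 luciferase reporter cells, 24 h at 37 degrees C. Readout was Dual-Glo firefly luminescence.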

SMILES | activity change, negative = inhibition
COC(=O)c1cccc(Nc2c(-c3ccc(SC)cc3)nc3nc[nH]n23)c1 | inactive: 28%
CCc1ccc(C2N=C(N)Nc3nc4ccccc4n32)cc1 (configuration not stated) | inactive: -7.78%
Cc1cccc(N2CCN(c3ncnc4onc(C)c34)CC2)c1C | inactive: -12.7%
Cc1ccc(-n2ncc(C(=O)NCCc3ccsc3)c2C2CCN(C(=O)OC(C)(C)C)CC2)c(C)c1 | inactive: -26.9%
O=C(CCCCCn1c(=O)[nH]c2ccccc2c1=O)NCCc1ccccc1 | inactive: -18.3%
COC(=O)[C@@H]1[C@H]2C[C@@H]3c4[nH]c5ccccc5c4CCN3C[C@@H]2CC[C@@H]1O | inactive: 1.11%
COc1ccc(Cl)cc1NC(=O)CN(c1cccc(C)c1C)S(C)(=O)=O | inactive: -18.2%
Cc1cccc(S(=O)(=O)c2cn(Cc3ccc(F)cc3)c3cc(N4CCCCC4)c(F)cc3c2=O)c1 | inactive: -26.8%
CCc1ccc(CNC(=O)CN2C(=O)CSc3ccc(S(=O)(=O)N4CCOCC4)cc32)cc1 | inactive: 1.47%
COc1cccc(C(=O)N(Cc2ccc(N(C)C)cc2)Cc2ccco2)c1 | inactive: -23.4%
O=C(CSc1nc2c([nH]c3ccccc32)c(=O)n1-c1ccc(Cl)cc1)NCc1ccccc1 | inactive: -18.7%
CCc1ccc(S(=O)(=O)NCc2cccn2Cc2cccc(C)c2)cc1 | inactive: -13.4%
CC1=C(C(=O)Nc2cc(Cl)ccc2C)C(c2ccccc2F)n2ncnc2N1 (configuration not stated) | inactive: -4.91%
CN1CCN(C(CNC(=O)C(=O)Nc2ccccc2C#N)c2ccc3c(c2)OCO3)CC1 (configuration not stated) | inactive: -4.92%
CCn1c(=O)c(=O)n(CC)c2cc(N3CCCCC3)c(NC(=O)c3ccc(OC)c(OC)c3)cc21 | inactive: 20.4%
COc1cc(C(=O)Nc2sc3c(c2C(N)=O)CCC(C)C3)cc(OC)c1OC (configuration not stated) | inactive: 3.84%
Cc1ccc2sc(N(CCCN(C)C)C(=O)c3ccco3)nc2c1C | inactive: -19.5%
COc1ccc(CCNC(=O)CSc2cc(=O)n(C)c3ccccc23)cc1OC | inactive: -8.54%
CCCNC(=O)C1CCC(Cn2c(=O)c3sccc3n(CC(=O)N(CC)CC)c2=O)CC1 (configuration not stated) | inactive: 2.49%
COc1ccc(NC(=O)Cn2nnnc2-c2ccccc2F)c(C)c1 | inactive: -4.98%
Cc1ccc(-n2nc(C(=O)N3CCCCC3)c(=O)n(C)c2=O)cc1 | inactive: -2.23%

SMILES | activity change, negative = inhibition
CCCN(CCC)CCNC(=O)CS(=O)Cc1nc(-c2ccc(OC)c(OC)c2)oc1C (configuration not stated) | inactive: -4.3%
NCC(=O)O | inactive: 4.19% [at 25.2 µM]
COc1ccc(CN2C(=O)N(c3cccc(C)c3)C(=O)C2CC(=O)Nc2ccc(F)cc2)cc1OC (configuration not stated) | inactive: -9.14%
CN(Cc1ccccc1)C(=O)C(=O)Nc1ccc2nc3n(c(=O)c2c1)CCCCC3 | inactive: -8.21%
COc1ccc(-n2c(=O)c3ccc(C(=O)NCc4ccc(C)cc4)cc3n(CC(=O)Nc3cccc(F)c3)c2=O)cc1 | inactive: -19.5%
Cc1ccc(CNC(=O)c2cc3cc(C)ccc3n2C)cc1 | inactive: -23.1%
CNc1ccc(-c2nc(-c3ccccn3)no2)cc1[N+](=O)[O-] | inactive: 50%
Cc1ccc(NC(=O)CN2C(=O)COc3ccc(S(=O)(=O)N4CCCCC4)cc32)cc1Cl | inactive: -14.8%
CCOC(=O)c1cc(NC(=O)c2ccc(C)cc2)c(=O)n2c1oc1ccccc12 | inactive: -7.11%
COCCCNC(=O)Cn1c(=O)n(-c2ccccc2)c(=O)c2c1c1cc(OC)ccc1n2C | inactive: -14.6%
COc1ccc(Nc2ncnc3scc(-c4ccc(F)cc4)c23)cc1 | inactive: -16.7%
CC(=O)Nc1ccc2nc(SCCOc3ccc(C)cc3)sc2c1 | inactive: -6.44%
COc1ccc(NC(=O)c2sc3nc(C)c(C(=O)Nc4ccc(C)cc4C)c(-c4sccc4C)c3c2N)cc1 | inactive: -19.2%
CC1CCc2c(N3CCC(O)CC3)c(F)cc3c(=O)c(C(=O)O)cn1c23 (configuration not stated) | inactive: -5.97%
CCc1c(CN2CCN(c3ccc(F)cc3)CC2)csc1C | inactive: -15.5%
COc1ccc(C)cc1Nc1nc2c(S(=O)(=O)c3cc(C)ccc3C)nnn2c2ccsc12 | inactive: 1.62%
Cc1ccc(CN2CCC(CNC(=O)Nc3ccccc3F)CC2)cc1 | inactive: -11.8%
O=C(COc1ccc(Cl)cc1)NCCc1csc(-c2ccc(C(F)(F)F)cc2)n1 | inactive: -23.4%
COCCNc1nc2c(S(=O)(=O)c3ccccc3)nnn2c2ccc(Cl)cc12 | inactive: -5.75%
COc1cc2c(cc1NC(=O)COc1cc(C)cc(C)c1)oc1ccccc12 | inactive: -10.1%
COc1ccc(Cn2c(CCC(=O)Nc3ccc(Br)c(C)c3)nc3cccnc32)cc1 | inactive: -18.4%

SMILES | activity change, negative = inhibition
O=C(Cn1nnc(-c2ccc(C(F)(F)F)cc2)n1)NCCc1ccccc1 | inactive: -6.36%
Cc1cc(C)cc(NS(=O)(=O)c2cc3[nH]c(=O)c(=O)[nH]c3cc2C)c1 | inactive: -4.7%
COc1cc(OC)c(C(=O)NCc2nc(-c3ccccc3)no2)cc1OC | inactive: -18.6%
CCCC(=O)Oc1c(Sc2ccc(C)cc2)c(C)nn1-c1ccccc1 | inactive: -16.7%
CCc1ccc(CN(Cc2ccco2)c2cnc(S(C)(=O)=O)nc2C(=O)Nc2ccc(C)c(Cl)c2)cc1 | inactive: -11.8%
Cc1ccc(NC(=O)CN(C)S(=O)(=O)c2cccc3cccnc23)c(C)c1 | inactive: -7.12%
Cc1nn2c(=O)cc(COC(=O)c3ccc(NC(=O)CCc4ccccc4)cc3)nc2s1 | inactive: 13.4%
CCc1noc(-c2ccc(N3CCC(C)CC3)c([N+](=O)[O-])c2)n1 | inactive: 6.7%
CCC(Sc1nc2cc3c(cc2c(=O)n1CCCCCC(=O)NCc1ccc2c(c1)OCO2)OCO3)C(=O)NCCCOC (configuration not stated) | inactive: -11.3%
CC(C)C(=O)Nc1ccccc1C(=O)OCc1cc(=O)n2nc(C3CC3)sc2n1 | inactive: -16.2%
O=C(Nc1cccc(Br)c1)Nc1nc2c(s1)CCCCCC2 | inactive: -13.4%
O=C(CN1C(=O)c2cccnc2Oc2ccc(Cl)cc21)NCCCN1CCCCC1 | inactive: 1.96%
Cc1cccc(-c2nc3cc(NC(=O)c4ccc(OCC(C)C)cc4)ccc3o2)c1 | inactive: -6.48%
Cc1ccn2c(c1)nc(=O)c1cc(S(=O)(=O)N3CCCCC3)ccc12 | inactive: -14.5%
CCOc1ccc(NC(=O)NC(C)c2c(-n3cccc3)sc3c2CCN(CC)C3)cc1 (configuration not stated) | inactive: -16.5%
COc1cccc(CCNC(=O)c2ccc(Cn3c(SCc4ccccc4)nc4cccnc43)cc2)c1 | inactive: -17.1%
O=C(Nc1ccc2nc(SCCOc3ccccc3)sc2c1)c1ccco1 | inactive: -10.3%
Cc1cccn2c(=O)c3cc(C(=O)NC(C)C)n(C)c3nc12 | inactive: 2.12%
Cc1ccccc1NC(=O)C1CCN(C(=O)c2ccc(F)cc2)CC1 | inactive: -9.77%
CCOc1ccc(NC(=O)Cn2cc(C(=O)c3ccc(F)cc3)c(=O)c3cc4c(cc32)OCO4)cc1 | inactive: -2.45%
